Test results taken from PubChem BioAssay AID1508623 (National Center for Advancing Translational Sciences (NCATS), 2021).
About 450 (0.94%) of roughly 48,000 compounds were called active. Inconclusive results (about 19%) are left out. Calls follow the shape of the dose curve; as a rule, active = well fitted inhibition curve with a large enough effect; inconclusive = small, poorly fitted or top-dose-only effect; inactive = no such curve, though single readings can be large or run the other way. Some of the results follow.

Experiment: Primary qHTS for Identification of Small Molecule Inhibitors of Huntingtin Promoter Activity; also: nearly all actives have a fitted effect of over 50% in size
Conditions: HEK293 HTT promoter firefly luciferase reporter (activity 0% = vehicle and -100% = no light), 24 h; series mostly up to 57.5 µM; activity change, negative = inhibition: at the top concentration
How it was run: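 HEK293 Fluc reporter, 2,500 cells/well, 24 h pre-culture; cpds up to 57.5 uM final, 24 h 37 degrees C; Dual-Glo, 10 min RT; normalized vehicle = 0%, zero RLU = -100%.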

Activity change, negative = inhibition, inactive:
COc1ccc(-c2[nH]c3c(c2-c2c(-n4cccc4)n(C)c(=O)[nH]c2=O)c(=O)[nH]c(=O)n3C)cc1F -11.6%
COc1ccccc1Nc1nc(N)nc(N)c1S(=O)(=O)c1ccccc1 -1.73%
Cn1c(SCC(=O)Nc2nc3ccccc3s2)ncc(C(=O)Nc2ccc(Cl)cc2)c1=O 3.75%
COc1cccc(NC(=O)Cn2nnc(C(=O)NCc3ccc4c(c3)OCO4)c2N)c1 -1.85%
CCOCCCNC(=O)c1cn(CC(C)C)c(=O)c2c1c1ccccc1n2C -12.4%
CSc1ncc(Cl)c(C(=O)N(C)c2ccccc2)n1 -23.7%
CCN1CCN(c2ncc3c(n2)CCN(Cc2cccc(F)c2F)C3)CC1 -7.73%
COC(=O)c1ccccc1NC(=O)c1nn(C)c2c1COc1ccccc1-2 -13.1%
Cc1cccn2c(=O)c3cc(C#N)c(=O)n(-c4nnc(SCc5ccc(F)cc5)s4)c3nc12 -14.2%
CC(Oc1ccccc1)C(=O)Nc1c(C(=O)Nc2cccc(F)c2)oc2ccccc12 (stereo not drawn) -17.6%
CCc1ccc(S(=O)(=O)Nc2cc3c(cc2C)n(C)c(=O)c(=O)n3C)cc1 -20.7%
CCOC(=O)c1c(NC(=O)COc2ccc(Cl)cc2Cl)sc2c1CCCCC2 -1.49%
CN(C)c1ccc(CNC(=O)Cn2c(-c3cccs3)cc3cc(Cl)ccc32)cc1 -29.8%
COc1ccccc1NC(=O)N1CCN(c2nnc(C)c3c(C)n(-c4ccccc4)nc23)CC1 -11.7%
Nc1c(-c2nc(-c3ccccc3Cl)no2)nnn1-c1ccccc1C(F)(F)F 24.3%
O=c1c2oc3ccccc3c2n(Cc2ccccc2F)c(=O)n1Cc1ccc2c(c1)OCO2 1.08%
CCN(CC)S(=O)(=O)c1ccc(NC(=O)c2c(C)oc3ncnc(N4CCCCC4)c23)cc1 0%
CCN(CC)CCN(C(=O)c1ccco1)c1nc2ccc(F)cc2s1 -10.3%
Cc1ccc(-c2nnc(SCC(=O)NCc3ccccc3)o2)cc1 -7.39%
CCOc1ccc(CNS(=O)(=O)c2ccc3c(c2)CC(C)N3C(C)=O)cc1OC (stereo not drawn) -15.4%
COc1ccc(OC)c(CCNC(=O)CCCn2c(=O)c3cccn3c3cccnc32)c1 -0.383%
O=C(NCc1ccccc1)c1ccc(CS(=O)(=O)c2c(Cl)cccc2Cl)o1 -9.37%
COc1ccc(N2CCN(C(=O)CSc3nc(-c4ccccc4)no3)CC2)cc1 21%
COc1ccc(-c2n[nH]c3c2C(c2ccccn2)N(C)C3=O)cc1 (stereo not drawn) -4.63%
COc1ccc(-n2nc3c(N4CCC(C(=O)NC5CCCCC5)CC4)nnc(C)c3c2C)cc1 -2.74%
Cc1ccc2oc(=O)c3cnn(CC(=O)N4CCN(c5cccc(Cl)c5)CC4)c3c2c1 6.39%
CCOc1ccc(OCC)c(NC(=O)CN(C)S(=O)(=O)c2ccc3[nH]c(=O)oc3c2)c1 -14.4%
Cc1cccc(C(=O)Nc2ccc3nc(SCC(=O)N4CCCC4)sc3c2)c1 -15.7%
Cc1cc(C(=O)NCCc2ccc(Cl)cc2)c2c(C)nn(-c3ccccc3)c2n1 1.38%
COc1cc(CNC(=O)c2ccc(NC(=O)N3CCCCc4ccccc43)cc2)cc(OC)c1OC -23.6%
CC(=O)[C@@]1(O)CC[C@H]2[C@@H]3CCC4=CC(=O)CC[C@]4(C)[C@H]3CC[C@@]21C -3.67%
CC(=O)c1cccc(NC(=O)CCn2nc(C)c(S(=O)(=O)N3CCCCC3)c2C)c1 -25.6%
O=C(c1cccs1)N1CCCc2cc(NS(=O)(=O)c3cc(F)ccc3F)ccc21 -35.9%
CCc1ccccc1NC(=O)C1CCCN(S(=O)(=O)c2ccc3[nH]c(=O)ccc3c2)C1 (stereo not drawn) -14%
Cc1ccc(OCC(=O)NCC(=O)OCc2cc(=O)n3nc(CC(C)C)sc3n2)cc1 -6.43%
O=C(NCCc1ccc(Cl)cc1)c1cnc2sc(N3CCCC3)nn2c1=O -22.7%
CC(=O)c1ccc(NC(=O)C2CCN(S(=O)(=O)c3c(C)noc3/C=C/c3ccc(C)cc3)CC2)cc1 -21%
COc1ccc(CNC(=O)CN2C(=O)COc3ccccc32)c(OC)c1 13.5%
Oc1ccccc1-c1nc2cnccn2c1Nc1ccc(Cl)cc1 -26.4%
COc1ccc(-c2nn3c(-c4ccccc4)nnc3c3ccccc23)cc1 -4.73%
CCOc1ccc(C(=O)N2CCc3cc(OC)c(OC)cc3C2COc2ccc3c(C)cc(=O)oc3c2)cc1OCC (stereo not drawn) -14.5%
CCOc1ccc(CNC(=O)CCCn2c(=O)c3cccn3c3cccnc32)cc1 3.69%
CCCOc1ccc(OC(=O)c2ccc(-c3ccc(CCC)cn3)cc2)cc1 3.39%
COc1cc(NC(=O)CCNC(=O)Cn2ccc3ccccc3c2=O)cc(OC)c1OC -9.22%
COc1ccc(CCNC(=O)c2cc(Nc3ccccc3)nc3ccccc23)cc1OC -16.7%
O=C1CCc2cc(S(=O)(=O)NCc3ccccc3)cc3c2N1CC3 -16.9%
CCn1c(C(=O)Nc2ccccc2C(=O)OC)cc2sc(Cl)cc21 -10.6%
CCCCCCCCCCOc1cc2c(=O)c(C(=O)OCC)c[nH]c2cc1OCC 0.204% [at 6.01 µM]
Cc1nc2c(c(C)nn2-c2ccccc2)c(C)c1CCC(=O)Nc1ccccc1 15.3%
Cc1ccc(NC(=O)Cn2c(=O)n(Cc3ccc(F)cc3)c(=O)c3cccnc32)cc1C 12.9%
O=C(Nc1ccc(S(=O)(=O)N(Cc2ccccc2)c2ccccc2)cc1)c1ccccc1F -24.8%
O=C(CCCCn1c(=O)c2ccccc2n(Cc2ccc(F)cc2Cl)c1=O)NCCc1ccc(Cl)cc1 -23%
COC(=O)c1ccccc1NC(=O)CCCn1c(C)c2cnn(-c3ccccc3)c(=O)c2c1C -15.6%
COc1ccccc1CNC(=O)Cc1c(C)c2cc3c(C)coc3c(C)c2oc1=O -9.13%
CCOc1ccc(CCNC(=O)C2Cc3ccccc3N2C(=O)CC)cc1 (stereo not drawn) -13%
CCOC(=O)c1ccc(Nc2c(-c3ccc(OC)cc3)nc3nc[nH]n23)cc1 -14.5%
Cc1ccccc1Cn1c(=O)n(Cc2ccco2)c(=O)c2sc3ccccc3c21 -11.4%
CCC(=O)N1CCc2cc(CNC(=O)Nc3cc(OC)c(OC)c(OC)c3)ccc21 -28%
CCN(CC)C(=O)C1=C(C)Nc2nc3ccccc3n2C1c1ccccc1F (stereo not drawn) -4.39%
CCOC(=O)c1cc2c(=O)n3ccccc3nc2n(CCCOC)c1=NC(=O)c1c(-c2c(F)cccc2Cl)noc1C -21.5%
O=C(Cc1ccc(NC(=O)N2CCCCc3ccccc32)cc1)NCc1cccc(Br)c1 -14.2%
COc1ccc(Cl)cc1NC(=O)Cn1c(=O)n(-c2ccc(C)cc2)c(=O)c2ccc(C(=O)NCc3ccccc3Cl)cc21 -20%
CCCCn1c(SCc2ccccc2C)nc2ccsc2c1=O 2.14%
COc1ccc(CNC(=O)C(=O)NCC(c2ccco2)S(=O)(=O)c2cccs2)cc1 (stereo not drawn) -23.2%
Cc1nnc(SCc2cc(=O)c3cc(F)ccc3[nH]2)n1C 19%
Cc1ccc(NC(=O)c2ccc3c(O)c(S(=O)(=O)c4ccc(Cl)cc4)c(=O)[nH]c3c2)cc1 -1.17%
C=C(C)Cn1c(SCC(=O)c2ccc(Br)cc2)nc2sc3c(c2c1=O)CCCC3 -13.3%
CC1=C(C#N)C(NC(=O)c2ccccc2)(C(F)(F)F)C(=O)N1 (stereo not drawn) -17.6%
CCc1ccc2occ(CC(=O)Nc3ccc(OC)c(Cl)c3)c2c1 -16.1%
Cc1nc(SCC(=O)Nc2ccc(C)c(Cl)c2)cc(-c2ccccc2)n1 -18.1%
COc1ccc(CN(Cc2ccco2)C(=O)COc2ccccc2OC)cc1 -12.3%
CCc1ccccc1-n1cnc2cc(C(=O)NC3CCCCCC3)ccc21 -28.5%
O=C(Nc1ccccc1Cl)[C@H](CSCc1ccccc1)N1Cc2ccccc2C1=O -29.3%
O=C(c1ccc2c(c1)CCN2S(=O)(=O)c1ccccc1)N1CCN(c2ccccc2F)CC1 -9.42%
CSc1ccc(-c2nc3cccc(C)n3c2Nc2ccc3c(c2)OCO3)cc1 -17.3%
O=C(CN1C(=O)CSc2ccc(S(=O)(=O)N3CCCC3)cc21)NCc1ccccc1Cl -14.1%
Cc1ccc(OCC(=O)Nc2c(C(=O)c3ccc(Cl)cc3)oc3ccccc23)cc1C 0.107%
CCOc1ccc(C2c3c(oc4ccc(C)cc4c3=O)C(=O)N2CCCN(C)C)cc1OC (stereo not drawn) -2.88%
CO[C@H]1C=CO[C@@]2(C)Oc3c(C)c(O)c4c(O)c(c(/C=N/N5CCN(C)CC5)c(O)c4c3C2=O)NC(=O)/C(C)=C\C=C[C@H](C)[C@H](O)[C@@H](C)[C@@H](O)[C@@H](C)[C@H](OC(C)=O)[C@@H]1C -8.7%
COc1ccc(-n2nc(C(=O)Nc3ccc(C(C)=O)cc3)nc2-c2ccccc2)cc1 -16.8%
COc1ccc(-c2nnc(SCCOc3ccccc3C)o2)cc1OC 4.03%
Cc1cn(C)c(CC(=O)Nc2ccc(F)cc2Cl)c1C(=O)O -16.7%
Cc1cc(C)cc(OCCSc2nc3ccc(NC(=O)COc4ccccc4)cc3s2)c1 -30.6%
Cc1ccc(OCC(=O)Nc2nonc2-c2ccc(Br)cc2)cc1C -17.7%
CCOC(=O)C(CC)N1CCN(Cc2ccc(F)cc2)C(=O)C1=O (stereo not drawn) -8.75%
CCCc1nc(C(C)(C)O)c(C(=O)O)n1Cc1ccc(-c2ccccc2-c2nn[nH]n2)cc1 -8.74%
CCn1nc(C)c2c(-c3ccccc3)cc(=O)n(C(C)C(=O)Nc3cc(C)ccc3C)c21 (stereo not drawn) -22.2%
O=C(Nc1nc2c(F)cccc2s1)c1ccc(S(=O)(=O)N2CCCc3ccccc32)cc1 0.792%
COc1ccc(N2CCN(C(=O)C(C)n3nc(C)c4sc5ccccc5c4c3=O)CC2)cc1 (stereo not drawn) -0.0516%
CCOC(=O)c1c(NC(=O)C2c3ccccc3Oc3ccccc32)sc2c1CCC(CC)C2 (stereo not drawn) -9.12%
CCc1ccc(NC(=O)Cn2c(=O)n(CCCC(=O)NCc3ccc4c(c3)OCO4)c(=O)c3ccccc32)cc1 -12.2%
CCS(=O)(=O)NCC(c1ccco1)N1CCN(c2ccc(F)cc2)CC1 (stereo not drawn) -13.1%
CC(=O)C1=C(c2cccc([N+](=O)[O-])c2)N(C(C)=O)n2c(nnc2-c2ccc(C)cc2)S1 -11.8%
